# Experimental data reported in paper PMC4336329 (PLoS ONE, 2015).
# Among all 310,000 compounds or so, about 14,000 (4.5%) showed an effect of 50% or more. The effect is printed as a negative number. The list shows a part of the results.
# Biological target: human ether-à-go-go-related gene (hERG) potassium channel (human, UniProt Q12809)
# Assay: primary screen, population patch clamp on CHO cells stably expressing hERG
# 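Also: peak tail current of the secondary pulse compared with the same well before compound.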
# Sequence of human ether-à-go-go-related gene (hERG) potassium channel (Q12809 whole entry, looked up): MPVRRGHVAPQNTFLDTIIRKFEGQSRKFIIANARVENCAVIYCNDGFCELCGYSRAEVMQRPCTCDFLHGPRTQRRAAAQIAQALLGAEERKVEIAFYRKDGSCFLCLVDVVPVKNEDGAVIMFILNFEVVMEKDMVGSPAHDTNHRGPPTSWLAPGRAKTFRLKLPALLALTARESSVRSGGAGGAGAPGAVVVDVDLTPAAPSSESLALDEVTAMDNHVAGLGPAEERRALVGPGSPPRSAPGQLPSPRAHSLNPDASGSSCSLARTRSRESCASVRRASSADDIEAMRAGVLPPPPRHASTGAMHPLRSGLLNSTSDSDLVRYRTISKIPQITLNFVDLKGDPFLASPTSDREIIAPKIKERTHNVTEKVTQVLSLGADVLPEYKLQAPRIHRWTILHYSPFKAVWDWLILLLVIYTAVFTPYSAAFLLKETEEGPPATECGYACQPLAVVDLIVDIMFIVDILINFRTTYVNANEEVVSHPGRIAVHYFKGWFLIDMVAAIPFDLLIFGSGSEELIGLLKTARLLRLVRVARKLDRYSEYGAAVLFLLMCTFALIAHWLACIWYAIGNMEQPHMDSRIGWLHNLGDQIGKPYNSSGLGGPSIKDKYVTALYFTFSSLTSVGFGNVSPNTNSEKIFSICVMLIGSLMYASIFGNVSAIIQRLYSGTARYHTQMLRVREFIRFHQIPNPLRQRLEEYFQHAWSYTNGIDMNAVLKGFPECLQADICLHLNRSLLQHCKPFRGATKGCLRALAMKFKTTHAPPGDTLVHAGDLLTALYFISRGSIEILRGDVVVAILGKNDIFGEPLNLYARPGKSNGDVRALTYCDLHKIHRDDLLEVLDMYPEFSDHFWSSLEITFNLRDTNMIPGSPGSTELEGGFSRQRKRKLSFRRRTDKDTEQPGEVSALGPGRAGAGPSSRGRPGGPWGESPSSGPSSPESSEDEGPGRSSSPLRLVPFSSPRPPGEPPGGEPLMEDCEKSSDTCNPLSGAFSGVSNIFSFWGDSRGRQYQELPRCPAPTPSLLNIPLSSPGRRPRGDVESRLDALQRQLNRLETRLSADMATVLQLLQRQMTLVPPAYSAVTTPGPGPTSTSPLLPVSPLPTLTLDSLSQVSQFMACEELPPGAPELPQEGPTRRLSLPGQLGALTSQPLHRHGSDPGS
row,SMILES,"hERG current change (%, negative = inhibition) at 10uM [%]"
1,Cc1ccc(C)c(NC(=O)CCN2CCc3ccccc3C2)c1,-21.6
2,O=C(Nc1ccc(Oc2ccc(C(=O)O)c(C(=O)O)c2)cc1)c1cccs1,44.9
3,Cc1cc(NCCCn2ccnc2)n2nc(-c3ccc(F)cc3)cc2n1,-14
4,CCN(CC)CCCNc1nc(CN2CCOCC2)nc2sc3c(c12)CCC3,-14.3
5,O=C(CSc1nccc(=O)[nH]1)Nc1cccc2ccccc12,16.5
6,Cc1ccc(C)c(N2CCN(C(=O)c3ccccc3Br)CC2)c1,-7.63
7,Cc1ccc(S(=O)(=O)N2CCOCC2)cc1C(=O)Nc1ccc(C(N)=O)cc1,5.96
8,CN(CC(=O)Nc1ccccc1C(F)(F)F)C(=O)c1cc(-c2cccs2)nn1-c1ccccc1,-15.5
9,COC(=O)c1ccc2nc(C(F)(F)F)[nH]c2c1,8.9
10,Cc1cccc(C)c1N1CCN(S(=O)(=O)N2CCOCC2)CC1,-32.4
11,Cc1cc(C)nc(SCC(=O)NCc2ccco2)n1,2.76
12,Cc1nc(SCC(=O)OCc2ccccc2)c(C#N)c(-c2ccccc2)c1C(=O)Nc1ccccc1,15.7
13,CCN(CC)S(=O)(=O)c1ccc2oc(C(=O)NCc3ccc(F)cc3)c(C)c2c1,12.8
14,O=C(CCCc1ccccc1)NC1CC1,-2.35
15,Cn1ncc2c(N3CCN(c4ccc(Cl)c(Cl)c4)CC3)ncnc21,-18.3
16,O=C(C1CCCO1)N1CCN(C(=S)Nc2ccc(F)c(Cl)c2)CC1 (stereo not shown),-12
17,Nc1nonc1-n1nnc(C(=O)N/N=C/c2cccnc2)c1CSc1ccccc1,3.22
18,COc1ccc(CCN2C(=O)C3C4CC(C5C(C(=O)NN)=NOC45)C3C2=O)cc1OC (stereo not shown),7.3
19,O=C(CCS(=O)(=O)c1ccc(Cl)cc1)Nc1ccccc1Br,20.6
20,Cn1c(=O)c2c(ncn2CC(O)CNc2ccc(F)cc2)n(C)c1=O (stereo not shown),1.35
21,O=C(/C=C/c1ccccc1[N+](=O)[O-])N1CCOCC1,15.5
22,Cc1ccccc1C(=O)N/N=C1/SCC(=O)N1Cc1ccc2c(c1)OCO2,-8.73
23,C[C@H](CCC(=O)NCC(=O)O)[C@H]1CC[C@H]2[C@@H]3[C@H](O)C[C@@H]4C[C@H](O)CC[C@]4(C)[C@H]3C[C@H](O)[C@]12C,18.4
24,Cc1sc(NC(=O)C2=COCCO2)nc1-c1ccc(F)cc1,15.5
25,CCOC(=O)C1=NN(N=O)C2(CC(=O)N(c3cc(C)cc(C)c3)C2=O)C1 (stereo not shown),-4.22
26,O=C(c1cc2cc([N+](=O)[O-])ccc2oc1=O)N1CCN(C2CCCCC2)CC1,-72.5
27,COc1ccccc1C(=O)NC(=O)CSc1cccc[n+]1[O-],13.6
28,CCCCC1=CC2=C(c3ccco3)C(=O)C(C)(OC(=O)c3ccc(OC)cc3)C(=O)C2=CN1CCCN(CC)CC (stereo not shown),2.5

row,SMILES,"hERG current change (%, negative = inhibition) at 10uM [%]"
1,O=C(Nc1ccccc1)c1ccc(S(=O)(=O)N(CCO)CCO)cc1,3.74
2,COC(=O)Cn1ncc(N(C)Cc2ccccc2)c(Cl)c1=O,-2.52
3,COc1ccc(C2=NO[C@@H]3C(=O)N(c4ccc(C)cc4C)C(=O)[C@H]23)cc1OC,1.08
4,CCOC(=O)c1c(N/N=C/c2cccnc2)n[nH]c1C,1.57
5,CCc1noc(C)c1C(=O)OC(C)C(=O)Nc1ccccc1OC (stereo not shown),-12.8
6,CNc1ccc(Br)cc(C(=O)/C=C/c2ccc(OC)cc2OC)c1=O,4.51
7,Cc1ccc(C(=O)N2CCN(C)CC2)cc1S(=O)(=O)N1CCCCCC1,-25.9
8,Cc1ccc(C)c(-n2c(N)c(C(N)=O)sc2=S)c1,-9.17
9,CCOC(=O)c1cc(C(=O)c2cc(F)ccc2O)coc1=N,-3.66
10,C=CCN1C(=O)c2ccc(C(=O)OCC(=O)Nc3ccc(S(N)(=O)=O)cc3)cc2C1=O,-14.5
11,Cc1ccc(S(=O)(=O)/N=C2/C=C(Sc3ncn[nH]3)C(=O)c3ccccc32)c(C)c1,23.8
12,COC(=O)c1ccc(OC(=O)c2cnccn2)cc1,20.1
13,Cc1ccc2nc3n(c(=O)c2c1)-c1ccc(Cl)cc1C(=O)NC3Cc1ccccc1 (stereo not shown),6.15
14,COc1ccc(CCNC(=O)COC(=O)c2ccc(C)s2)cc1,-5.42
15,Cc1ccc(NC(=O)CCN2C(=O)C3CCCCC3C2=O)cc1[N+](=O)[O-] (stereo not shown),-14.3
16,CCC(=O)n1nc(-c2ccco2)nc1SCc1ccccc1,9.32
17,Cc1ccccc1-c1nnn(CC(=O)N2CCN(C(=O)c3ccco3)CC2)n1,-40.1
18,CN1CCN(NC(=O)c2cc(S(=O)(=O)N3CCOCC3)c(Cl)cc2Cl)CC1.Cl,7.95
19,CN1CCC(=NOc2ccc([N+](=O)[O-])cc2)CC1,-74.8
20,CCN(CC)S(=O)(=O)c1ccc(N=Nc2c(N)[nH]c(=O)[nH]c2=O)cc1,28.4
21,COc1ccc(OC)c(CCNC(=O)c2ccc3c(c2)N(Cc2ccccc2)CCS3)c1,8.55
22,O=C(COC(=O)c1cccc(N2C(=O)C3CC=CCC3C2=O)c1)c1ccccc1 (stereo not shown),14.7
23,Cc1cccc(Cn2c(C)nc3ccc([N+](=O)[O-])cc3c2=O)c1,-25.1
24,CSc1nc(=O)n2cccc(C)c2n1,4.07
25,O=C(CCC1CCCC1)c1c(O)c2ccccc2oc1=O,12.4
26,O=C1N=C(N2CCOCC2)S/C1=C\c1ccc(-c2ccccc2Cl)o1,-15.3
27,CN(C)c1ccc(N2C(=O)CSC2=S)cc1,11.5
